Test results: the supplement of paper PMC11417369
This is one part of the list.

These sequences were tested on PfAP2-HC AP2 domain (GST-tagged) (assay: gcPBM binding intensity (ln(normalized median fluorescence intensity)); higher = stronger DNA binding).
Summary of the method: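 The binding buffer was 1× PBS containing 1% milk, 0.2 mg/ml BSA, 0.5% salmon testes DNA and 0.03% Triton X-100. In it, GST-tagged P. falciparum DNA-binding domains expressed in E. coli were applied for 1 h to an Agilent 4 × 180k array of primer-extended double-stranded 36-bp intergenic genomic probes plus negative controls. Binding intensity, read with Alexa488 anti-GST antibody and a 488 nm scan, is the highest Masliner-normalised natural-log median intensity across replicate spots of either probe orientation.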

Sequence	gcPBM binding intensity (ln)
AAAAAAGATAATTATGCACACACACCCACCCACCCA [CACACA_site8825]	10.5
TTTTTATAAATACACATAAATATATATATATATATA [TGCATGCA_negctrl_site393]	9.44
ACACAAAAAAATATATATATATATATATATATGTTA [CACACA_negctrl_site55]	9.72
AAAAAAAAAAAAAAATGTACATTTTGAAAGGATATA [XGTACX_site8217]	9.63
ATGCATTATTAGAATACACACCATACGCATATTTAT [CACACA_site4319]	9.86
TTTTTTTTTCTTTCTTTCTTTTGTAAAAACCTCAAA [CACACA_negctrl_site723]	9.37
ATATGTATATATAAAAGTACGCGTAAAAAAAAAAAA [XGTACX_site5377]	10.1
TATAAACCAATGAACACACAAACATATATATATATA [CACACA_site3168]	10.4
TCTTTTTATATTTATTGTACATAAAAAATAAAACAT [XGTACX_site4073]	9.47
TAAATATATAAATACACACACATACACAAAAAAAAA [CACACA_site5890]	10.9
TATACACCCTAAAATACACACACACCCACCCATATA [CACACA_site9380]	10.3
ACAACATTTCTCAAATGTACATAATATAATTTATAT [XGTACX_site3224]	9.64
TATTAATTCTTAAATTTTTTTTTTTAATTCCTAGGA [CACACA_negctrl_site879]	9.03
GCCTTCCTTCTAAATGCACACGGAAAGTATAAATGT [CACACA_site8797]	9.83
GAATGAATCAATGTTTGTACTCAACAAATTATAAGG [XGTACX_site5122]	9.58
CAATAATTTTTTAAATGTACTTTATTATAATTTAAT [XGTACX_site135]	9.48
TATATATAATACAGTATGCACTATTTTTATTAAAAA	9.41
TTTTCTTACATCTTATAAAAAAAAATATATATTATA [GTGCAC_negctrl_site118]	9
GTCTAACAACCAAACGCACACACACTAATAAAAAAA [CACACA_site8026]	10.3
TTATATACATAAAAATGTACTTTTTATAAAATATAT [XGTACX_site8281]	9.51
AAGTTAGTATTCTGCTGTACTTCTATATATAAGTGT [XGTACX_site7678]	9.61
ATATATCAAAAATGATGACATAAATATATTAATTTA [TGCATGCA_negctrl_site259]	9.62

Sequence	gcPBM binding intensity (ln)
ATAAAATAATCTTATGCACACCAAAAATTTATATAA [CACACA_site8332]	9.69
TTTTTGTAAAATAAACGTACAAAACAATTGTTCATT [XGTACX_site6537]	9.45
TATCTGTATGTATGTACACACAAAAAATGGAATATA [CACACA_site5947]	9.92
TATTTTAAAACAAAAATATAATTTCATAAAAATATA [CACACA_negctrl_site394]	9.23
TAATATATATATTTATGTACATATAAATTTTCTCCT [XGTACX_site4496]	9.57
TTTTATTCCGTTTCAAAATAAGAAAAAAAAAAAAAT [CACACA_negctrl_site1199]	9.1
TACTTCTCATTTGTTGTTGTATTTTAGGCATACCCT [XGTACX_negctrl_site385]	9.66
TTTCACACTATTTCATGTACACATAAAATTATATAT [XGTACX_site8692]	9.71
TAAATATAATAAAAGTGTACTTACACTTACATATAA [XGTACX_site1206]	9.76
AACAGATAAAAGGGTACACACATATATACATGTACA [CACACA_site225]	10.1
ATATAATAAGGTTAAGCACACATATTACATATATAA [CACACA_site9110]	9.88
TTGTATATATTTCCTTGTACGTAATAATTCTTATTG [XGTACX_site3938]	9.74
AAGGATAATAGGTACACATGCAATATTCATATATAC [TGCATGCA_site523]	9.86
CTTATATATACGTGCACACATATATATAAGATATAT [CACACA_site1752]	9.69
AAAAATATAAATGACACACACTTAAAAACAAAGAAA [CACACA_site4540]	10.2
ATTTAAAAAAAAAAAAATAAATAACTTGAAAAACAA [GTGCAC_negctrl_site318]	9.44
TGTTTTTCATAGTGCACACATAACCAAAAATAGTAT [CACACA_site3150]	9.67
ACGTATATTTTTACATGTACATATGTAAAAAATTTT [XGTACX_site4587]	9.57
TTATGATAATTTTGCACACACTTAGGAAAAATTATG [CACACA_site4949]	9.79
AAATAATATATATACACACACACATATATATATACA [CACACA_site554]	10.6
AAATACTGTACAAAGGTGCATAAAAAGTGGGGCATA	10.2
TCAAAAGAAATAAAAACATGCATAAAAGTAAAAATA [TGCATGCA_site832]	9.63
